Results: the RNAGym collection of RNA variant scans (doi:10.1073/pnas.2313332121)
Variants at the background level are over-represented here.

B1: TPR 5TU (parent)
chain: GGAUCUUCUCGAUCUAACAAAAAAGACAAAUCUGCCACAAAGCUUGAGAGCAUCUUCGGAUGCAGAGGCGGCAGCCUUCGGUGGCGCGAUAGCGCCAACGUUCUCAACUAUGACACGCAAAACGCGUGCUCCGUUGAAUGGAGUUUAUCAUG

Variants of: B1
Experiment: polymerase ribozyme fitness, log enrichment relative to wild type (log ratio); higher = more active; in vitro selection for triplet polymerase activity
In short: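 Fitness is a logarithmic measure of how a genotype enriched relative to the wild type, with replicate averages weighted by inverse variance. The logarithm uses base 2, and enrichment came from Illumina sequencing of input and output libraries. Those libraries were PCR-built, transcribed mutants of each subunit of a heterodimeric triplet polymerase ribozyme, passed through one triplicate in vitro selection round that included frozen incubation at −7 °C, gel excision of extended constructs and streptavidin-bead capture. Genotypes were kept only if they had ≥10 input reads and ≥1 read per output.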

| Variant | polymerase ribozyme fitness (log ratio) |
| --- | --- |
| GGAUCUUCUCGAUCUAACAAAAAAGACCAAUCUGCCACAAAGCUUGAGAGCAACUUGGGAUGCAGAGGCGGCAGCCUUCGGUGGCGCGAUAGCGCCUACGUUCUCAACUAUGACACUCAAAACGCGUGCUCCGUUGAAUGGAGUUUAUCAUG [A28C U53A C57G A97U G117U] | ≤ -4.2 |
| GGAUCUUCUCGAUCUAACAAAAAAGACCAAUCUGCCACAAAGCUUGAGAGCAACUUCGGAUGCAGAGGCGGCAGCCUUCGGUGGCGCGAUAGCGCCAACGUUCUCAACUAUGACACGCAAAACGCGUGCUCCGUUGAAUGGAGAUUAUCAUG [A28C U53A U144A] | ≤ -4.2 |
| GGAUCUUCUCGAUCUAACAAAAAAGACCAAUCUGCCACAAAGCUUGAGAGCAGCUUCGCAUGCAGAGGCGACAGCCUUCGGUGGCGCGAUAGCGCCAACGUUCUCGACUAUGACACGCAAAACGCGUGCUCCGUUGAAUGGAGUUUAUCUUG [A28C U53G G59C G71A A106G A150U] | ≤ -4.2 |
| GGAUCUUCUCGAUCUAACAAAAAAGACCAAUCUGCCACAAAGCUUGAGAGCAUCGACGGAUGCAGAGGCGGCAGCCUUCGGUGGCGCGAUAGCGCCAACGUUCUCAACUAUGACACGCAAAACGCGUGCUCCUUUGAAUGGAGUUUAUCAUG [A28C U55G U56A G133U] | ≤ -4.2 |
| GGAUCUUCUCGAUCUAACAAAAAAGACCAAUCUGCCACAAAGCUUGAGAGCAUCUCCGGAUGCAGAGGCGGCGGCCUUCGGUGGCGCGAUAGCACCAGCGUUCUCAACUAUGACAAGCAAAACGCGUGCUCCGUUGAAUGGAGUUUAUCAUG [A28C U56C A73G G94A A98G C116A] | ≤ -4.2 |
| GGAUCUUCUCGAUCUAACAAAAAAGACCAAUCUGCCACAAAGCUUGAGAGCAUCUGCGGAUGCAGAGGCGGCAGCCUUCGGUGGGGCGAUAGCGCCAGCGUUCUCAACUAUGACACGCAAAACGCGUGCUCCGUUGAAUGGGGUUUAUCAUG [A28C U56G C85G A98G A142G] | ≤ -4.2 |
| GGAUCUUCUCGAUCUAACAAAAAAGACCAAUCUGCCACAAAGCUUGAGAGCAUCUUCGGAUGCAGAGGCGGCAGCCUUCGGCGGCGCGAUAGCGCCAAGGUUCUCAACUAUGACACGCAAAACGCGUGCUCCGUUGAAUGGAGUUUAUCAUG [A28C U82C C99G] | ≤ -4.2 |
| GGAUCUUCUCGAUCUAACAAAAAAGACCAAUCUGCCACAAAGCUUGAGAGCAUCUUCGGAUGCAGAGGCGGCAGCCUUCGGUGGCGCGACAGCGCCAACGUUCUCAACUAUGACACGCAAAACGCGUGCUCCGUUGAAUGGAGUUUAUCAUG [A28C U90C] | ≤ -4.2 |
| GGAUCUUCUCGAUCUAACAAAAAAGACCAAUCUGCCACAAAGCUUGAGAGCAUCUUCGGAUGCAGAGGCGGCAGCCUUCGGUGGCGCGACAGCGCAAACGUUCUCAACUAUGACACGCAAAACGCGUGCUCCGUUGAAUGGAGUUUAUCAUG [A28C U90C C96A] | ≤ -4.2 |
| GGAUCUUCUCGAUCUAACAAAAAAGACCAAUCUGCCACAAAGCUUGAGAGCAUCUUCGGAUGCAGAGGCGGCAGCCUUCGGUGGCGCGAUAGCGCCAACGUUCUCAACUAUGACACGCAAAACGCGUGCUCCGUUGAAUGGAGGUUAUCAUG [A28C U144G] | -4.03 |
| GGAUCUUCUCGAUCUAACAAAAAAGACGCAUCUGCCACAAAGCUUGAGAGCAUCUUCGGAUGCGGAGGCGGCAGCCUUAGGUGGCGCGAUAGCGCCAACGUUCUCAACUAUGACACGCAAAACGCGUGCUCCGGUGAAUGGAGUUUAUCAUG [A28G A29C A64G C79A U134G] | ≤ -4.2 |
| GGAUCUUCUCGAUCUAACAAAAAAGACGCAUCUGCCACAAAGCUUGAGAGCAUCUUCGGAUGCAGAGGCGGCAGCCUUCGGUGGGGCGAUAGCGCCAACGUUCUCAACUAUGACACGCAAAACGCGUGCUCCGUUGAAUGGAGUUUAUCAUG [A28G A29C C85G] | ≤ -4.2 |
| GGAUCUUCUCGAUCUAACAAAAAAGACGUAUCUGCCACAAAGCUUGAGAGCAUCUUCGGAUGCAGAGGCGGCAGCCUUCGGUGGCGCGAUAGCGCCAACGUUCUCAACUAUGACACGCAAAACGCGUGCUCCGUUGAAUGGAGUUUAUCAUG [A28G A29U] | -3.79 |
| GGAUCUUCUCGAUCUAACAAAAAAGACGUAUCUGCCACAAAGCUUGAGUGCAUCUUCCGAUUCAGAGGCGGCAGCCUUCGGUGGCGGGAUAGCGCCAACGUUCUCAACUAUGACACGCAAAAGGCGUGCUCCGUUGAAUGGAGUUUAUCAUG [A28G A29U A49U G58C G62U C87G C123G] | ≤ -4.2 |
| GGAUCUUCUCGAUCUAACAAAAAAGACGUAUCUGCCACAAAGCUUGAGAGCCUCUUCGGAUGCAGAGGCGGCAGCCUUCGGUGGCGCGAUGGCGCCAACGUUCUCAACUAUGACACGCAAAACGCGAGCUCCGUUGAAUGGAGUUUAUCAUG [A28G A29U A52C A91G U127A] | ≤ -4.2 |
| GGAUCUUCUCGAUCUAACAAAAAAGACGAGUCUGCCACAAAGCUUGAGAGCAUCUUCGGAUGCAGAGGCGGCAGCCUUCGGUGGCUCGAUAGGGCCAACGUUCUCAACUAUGACACCCAAAACGCGUGCUCCGUUGAAUGGAGUUUGUCAUG [A28G A30G G86U C93G G117C A147G] | ≤ -4.2 |
| GGAUCUUCUCGAUCUAACAAAAAAGACGAAUCUGCCCCAAAGCUUGAGAGCAUCUUCGGAUGCAGAGGCGGCAGCCUUCGGUGGCGCGAUAGCGGCAACGUUCUCAACUAUGACACGCAAAACGCGUGCUCCGUUGAAUGGAGUUUAUCAUG [A28G A37C C95G] | ≤ -4.2 |
| GGAUCUUCUCGAUCUAACAAAAAAGACGAAUCUGCCUCCAAGCUUGAGAGCAUCUUCGGAUGCAGAGGCGGCAGCCUUCGGUGGCGCGAUAGCGCCAACGUUCUCAACUAUGACACGCAAAACGCGUGCUCCGUUGAAUGGAGUUUAUUAUG [A28G A37U A39C C149U] | ≤ -4.2 |
| GGAUCUUCUCGAUCUAACAAAAAAGACGAAUCUGCCACUAAGCUUGAGAGCAUCUUCGGGUGCAGAGGCGGCAGCCUUCGGUGGCGCGAUAGCGCCAACGUUCUCAACUAUGACACGCAAAACGUGUGCUCCGUUGAAUGGAGUUUAUCAUG [A28G A39U A60G C125U] | ≤ -4.2 |
